Measurements taken from PMC4336329 (PLoS ONE, 2015).
Screen size: about 310,000 compounds; about 14,000 (4.5%) showed an effect of 50% or more. The effect is printed as a negative number. The list shows a part of the results.

molecular target: human ether-à-go-go-related gene (hERG) potassium channel (human, UniProt Q12809); test: primary screen, population patch clamp on CHO cells stably expressing hERG
Protocol: Briefly, Chinese hamster ovary (CHO) cells stably expressing the hERG channel were dislodged from tissue culture flasks and dispensed into PPC plates. […] During the recording, background leak currents were estimated by a 100 ms step to -80 mV from an initial holding potential of -70 mV and subtracted from the subsequent current measurement. The campaign was conducted in two phases using slight differences in recording protocol. In the first phase, the initial voltage pulse used a 100 ms step to -30 mV from a holding potential of -70 mV, a 2 s conditioning step to +25 mV, and a 2 s test step to -30 mV. During the second phase of the screen, the potential during the conditioning step was raised to +45 mV. In both phases of the campaign, a secondary voltage pulse was applied using the same parameters as the second phase initial pulse. The initial and secondary pulses were applied in the absence of compound, and upon application of 1 μM and 10 μM test concentrations. […]
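Further: peak tail current of the secondary pulse compared with the same well before compound.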

Sequence of human ether-à-go-go-related gene (hERG) potassium channel (Q12809 whole entry, looked up): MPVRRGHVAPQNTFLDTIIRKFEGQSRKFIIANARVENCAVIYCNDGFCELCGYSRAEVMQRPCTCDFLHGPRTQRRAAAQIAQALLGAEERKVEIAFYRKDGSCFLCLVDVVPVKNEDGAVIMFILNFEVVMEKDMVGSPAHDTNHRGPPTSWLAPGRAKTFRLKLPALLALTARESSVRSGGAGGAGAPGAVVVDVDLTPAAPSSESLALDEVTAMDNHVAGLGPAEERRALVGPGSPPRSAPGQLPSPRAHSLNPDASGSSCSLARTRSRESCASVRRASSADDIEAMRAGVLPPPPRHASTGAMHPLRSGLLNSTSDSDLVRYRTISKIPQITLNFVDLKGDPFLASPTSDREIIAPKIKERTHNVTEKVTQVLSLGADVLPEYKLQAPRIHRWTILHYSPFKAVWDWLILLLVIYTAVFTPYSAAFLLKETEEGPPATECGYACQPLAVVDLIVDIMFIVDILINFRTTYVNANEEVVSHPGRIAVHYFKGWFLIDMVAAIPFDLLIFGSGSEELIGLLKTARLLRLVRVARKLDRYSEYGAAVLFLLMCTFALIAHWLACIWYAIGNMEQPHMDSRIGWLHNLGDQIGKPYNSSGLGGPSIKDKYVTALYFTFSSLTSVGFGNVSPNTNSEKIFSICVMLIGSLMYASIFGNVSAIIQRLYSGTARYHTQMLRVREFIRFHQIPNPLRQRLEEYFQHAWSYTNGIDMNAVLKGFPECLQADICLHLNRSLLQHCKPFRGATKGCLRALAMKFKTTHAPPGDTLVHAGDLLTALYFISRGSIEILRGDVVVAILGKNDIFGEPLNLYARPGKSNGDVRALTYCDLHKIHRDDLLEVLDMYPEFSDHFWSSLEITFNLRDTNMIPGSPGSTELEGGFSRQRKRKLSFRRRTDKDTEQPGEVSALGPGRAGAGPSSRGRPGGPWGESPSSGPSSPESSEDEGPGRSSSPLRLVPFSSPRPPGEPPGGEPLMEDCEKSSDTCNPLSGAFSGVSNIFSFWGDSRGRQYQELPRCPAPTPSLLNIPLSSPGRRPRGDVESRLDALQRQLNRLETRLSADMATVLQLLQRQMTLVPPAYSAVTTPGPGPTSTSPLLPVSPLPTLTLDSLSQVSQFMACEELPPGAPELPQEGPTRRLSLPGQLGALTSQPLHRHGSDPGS

| Structure (SMILES) | hERG current change (%, negative = inhibition) at 10uM |
| --- | --- |
| Cc1cc(-c2cccnc2)c(C#N)c(SCc2cccc(F)c2)n1 | 3.46% |
| Cc1nc2ccccn2c1-c1csc(Nc2ccc(C(=O)O)cc2)n1 | 17.1% |
| CCn1c(N2CCN(CC(=O)Nc3cccc(C)c3C)CC2)nc2ccccc21 | -63.6% |
| Cc1[nH]c(=O)nc2c1CCC2 | 24.3% |
| Cn1c(CN2CCCC2)c(C#N)c2ccccc21 | -12.1% |
| Cl.Clc1ccccc1CSc1nnc([C@@H]2CCCN2)o1 | 15.1% |
| Cn1c(Cn2c(=O)sc3ccccc32)nnc1SCC(=O)Nc1ccccc1F | 2.9% |
| COc1ccc(N2CCN(C(=O)C3(C)CC3(Cl)Cl)CC2)cc1 (centres unmarked) | 2.66% |
| COc1ccc(CNC(=O)[C@H](C)NC(=O)C2CCN(S(=O)(=O)c3ccccc3)CC2)cc1 | 10.4% |
| COc1ccc(S(=O)(=O)NCC2CCCN(C(=O)C=C(C)C)C2)cc1 (centres unmarked) | 22.2% |
| CCOC(=O)C(=O)CC(=O)c1ccc2c(c1)OCCO2 | -0.0539% |
| CC(/C=C/c1ccc(Cl)o1)=C\C(=O)O | 5.67% |
| Cc1cc(C(=O)COC(=O)c2ccc[nH]c2=O)c(C)n1-c1ccc(F)cc1 | 4.8% |
| CC1CN(CCOc2ccc(Cl)cc2Cl)CC(C)O1.O=C(O)C(=O)O (centres unmarked) | -24.6% |
| COc1ccc(CCN2C(=O)CSC2c2ccc(F)cc2)cc1 (centres unmarked) | 7.65% |
| CC(C)(C)c1csc(Sc2ncccc2[N+](=O)[O-])n1 | 9.28% |
| COc1ccc(C(C#N)CCC2OCCO2)cc1OC (centres unmarked) | -11.6% |
| Cc1ccc(S(=O)(=O)Nc2nc(CN3CCOCC3)nc3sc(C)c(C)c23)cc1 | -43% |
| CCOC(=O)C(CC)n1cnc2c(nnn2-c2ccc(F)cc2)c1=O (centres unmarked) | -25.6% |
| O=C(CSc1nnnn1-c1cccc2ccccc12)NC(C(=O)O)(c1ccccc1)c1ccccc1 | 19.7% |
| O=C(CC1SC(=O)N(c2ccccc2)C1=O)Nc1ccc(Cl)cc1 (centres unmarked) | 13.9% |
| COc1ccc(S(=O)(=O)NNC(=O)Nc2ccc(C)cc2C)c(OC)c1 | -1.37% |
| N#Cc1ccccc1COc1cccc2c1CCCC2O (centres unmarked) | 21% |

| Structure (SMILES) | hERG current change (%, negative = inhibition) at 10uM |
| --- | --- |
| CCC12CN(C(=O)c3ccc(OC)cc3)CC(CC)(CN(C(=O)c3ccc(OC)cc3)C1)C2=O | 3.45% |
| Cc1cc(C(=O)CCC(=O)NC(C)c2ccc(S(N)(=O)=O)cc2)c(C)s1 (centres unmarked) | -5.29% |
| Cc1n[nH]c(=O)c2c(NC(=O)CSc3nnnn3-c3ccccc3)oc(C)c12 | -21% |
| COc1ccccc1CN(C(=O)CCl)C(C(=O)NC1CCCCC1)c1ccncc1 (centres unmarked) | -1.23% |
| c1ccc(-c2nc3ccccn3c2NC2CCCC2)nc1 | -26.9% |
| CN(C)CCSc1nnc(-c2ccccc2)o1.Cl | -8.57% |
| O=C(/C=C/c1ccc(Cl)cc1Cl)NCc1ccncc1 | -2.87% |
| Cn1c(SCC(=O)Nc2sccc2C(N)=O)nnc1-c1ccncc1 | -4.85% |
| CC(C)CC(=O)Nc1ccc2c(c1)nc(CCN1CCOCC1)n2C | 27.4% |
| CC(C)C(=O)Nc1ccccc1C(=O)N/N=C/c1ccc([N+](=O)[O-])cc1 | 5.6% |
| O=C(O)CCC(=O)NN1C(=O)c2ccccc2NC1c1ccc(F)cc1 (centres unmarked) | -2.7% |
| CC(=O)c1ccc(S(=O)(=O)N2CCCCC2C(=O)O)cc1 (centres unmarked) | 14.8% |
| CC(C)C(=O)N1CCN(c2ccccc2NC(=O)c2cc([N+](=O)[O-])ccc2N2CCOCC2)CC1 | -67.2% |
| Cc1ccc(Cn2ncc3c(N4CCN(C)CC4)ncnc32)cc1 | -7.67% |
| Cc1cc(NC(=O)CSc2nnc(-c3ccncc3)n2-c2ccc(F)cc2)no1 | -3.61% |
| O=C(Nc1ccccc1C(=O)N1CCOCC1)c1ccc(Cl)cc1 | -15.1% |
| Cc1cc(NC(=O)CN2CCC(C)CC2)no1.O=C(O)C(=O)O | 20.6% |
| O=C1NC(=O)c2cc3ccccc3cc21 | -18.2% |
| O=C(Nc1cccc2c1CCCC2)c1ccccc1Br | 16% |
| COc1ccc(CCNC(=O)CSc2ncc(C(=O)Nc3ccccc3)c(=O)n2C)cc1 | -18.5% |
| CCNC(=O)NC(=O)COC(=O)CCCSc1nc2ccccc2[nH]1 | 3.65% |
| CCOC(=O)c1cc2c3ccccc3n(CC)c2nc1N | 7.25% |
| CCn1cc(C(=O)N[C@H](C(=O)O)C(C)C)c(=O)c2cc3c(cc21)OCO3 | 5.6% |

| Structure (SMILES) | hERG current change (%, negative = inhibition) at 10uM |
| --- | --- |
| COc1cccc(-c2csc3nnc(SCC(=O)c4ccc(NC(C)=O)cc4)n23)c1 | 4.79% |
| O=C(CN1CCN(c2ccccn2)CC1)Nc1cccc(S(=O)(=O)N2CCCC2)c1 | 12.4% |
| CCN(CC)C(=O)Cn1cnc2ccccc2c1=O | -2.77% |
| COc1ccc2[nH]cc(CCNC(=S)NCCc3ccccc3)c2c1 | 2.94% |
| Cc1cc(-c2ccc(C(C)C)c(S(=O)(=O)N3CCN(c4ccccn4)CC3)c2)on1 | 2.81% |
| CCN(CC(=O)NC(C)C)C(=O)C(CCSC)NC(=O)c1ccccc1OC (centres unmarked) | 22.1% |
| O=c1c2ccccc2nc(SCc2nnc(-c3ccccc3)o2)n1-c1ccc(F)cc1F | 19.4% |
| COc1ccccc1NC(=O)C1CCCN(C(=O)NCc2ccccc2)C1 (centres unmarked) | 0.779% |
| Cc1ccc(NCC(=O)N/N=C/c2cccn2C)cc1 | 6.12% |
| O=S(=O)(Nc1ccc(Cc2ccncc2)cc1)c1ccc(Cl)s1 | 4.65% |
| Cc1cc(C(=O)OCC(=O)Nc2nnc(C(C)C)s2)c2ccccc2n1 | 0.403% |
| COc1ccccc1NC(=O)c1ccc2c(c1)nnn2C | 21.2% |
| CCOc1ccc(C(=O)CCC(=O)Nc2cccc(S(=O)(=O)N3CCCCC3)c2)cc1 | -7.42% |
| CCONC(=O)Nc1ccccc1[N+](=O)[O-] | 4.9% |
| Cc1ccc(S(=O)(=O)n2ccc3cccnc32)cc1 | 4.2% |
| Cn1c(SCC(=O)OC2CCCCC2)nnc1-c1ccc2c(c1)OCO2 | -19.7% |
| COC(=O)c1ccc(CSc2nc3ccc(S(=O)(=O)N4CCOCC4)cc3[nH]2)cc1 | -10.8% |
| O=C(N/N=C/c1ccc(Br)s1)c1cccc([N+](=O)[O-])c1 | 12.2% |
| COc1ccc(-c2ccc(SCC(=O)NC3CCCCC3)nn2)cc1OC | 16.4% |
| CCOC(=O)N1CCN(C(=O)c2ccc(N3C(=O)CCC3=O)cc2)CC1 | -8.83% |
| COc1ccc(OC)c(C2=NOC(C(=O)NCCN3CCOCC3)C2)c1 (centres unmarked) | -0.364% |
| COc1ccc(CCNC(=O)C2CCN(S(=O)(=O)c3ccc(NC(C)=O)cc3)CC2)cc1OC | 9.83% |
| CNC(=O)c1ccc(NC(=O)CN2c3cccc4cccc(c34)S2(=O)=O)cc1 | 4.69% |

| Structure (SMILES) | hERG current change (%, negative = inhibition) at 10uM |
| --- | --- |
| CC(C)CN(CCCNC(=O)CN1C(=O)COc2ccc(S(=O)(=O)N3CCCC3)cc21)CC(C)C | -5.33% |
| Cc1ncc(C[n+]2csc(CCOC(=O)CC34CC5CC(CC(C5)C3)C4)c2C)c(N)n1.Cl.[Cl-] | -4.79% |
| O=C(O)CSc1nnc(-c2ccc(Cl)cc2Cl)n1-c1ccccc1 | 18.7% |
| CC(C)N1CC(C(=O)O)CC1=O (centres unmarked) | 19% |
| Cc1ccc(-c2csc(NC(=O)COC(=O)c3cccc(S(=O)(=O)N4CCOCC4)c3)n2)cc1 | 11.4% |
| COc1ccc(CNc2ccc3c(c2)CCC3)cc1Br | 35.4% |
| Cc1cc(N2C(=O)C(O)=C(C(=O)c3cccs3)C2c2cccc(O)c2)no1 (centres unmarked) | 14.6% |
| COc1ccccc1C(=O)NNc1ncc(C)s1.Cl | -0.745% |
| CC(=O)Nc1cc(C(F)(F)F)ccc1Oc1cccc(Br)c1 | -48.2% |
| CCCc1nnc(SCC(=O)N2CCOCC2)n1CC1CCCO1 (centres unmarked) | 23.6% |
| Clc1ccc2c(NNc3ccccc3Cl)ccnc2c1 | 7.9% |
| CN(C(=O)c1ccc(NC(=O)Cc2cccc(NC(=O)C3CCCN(C(=O)C4CCC4)C3)c2)cc1)C1CCCC1 (centres unmarked) | -8.89% |
| Cc1c(NC(=S)NC(=O)c2sc3ccccc3c2Cl)cccc1C(=O)O | -7.69% |
| COc1cccc(CNC(=O)c2ccc(Cl)c(S(=O)(=O)N3CCOCC3)c2)c1 | -19.5% |
| C=CCNC(=S)N1CCN(c2ccccc2Cl)CC1 | -6.87% |
| Clc1ccc(-c2nnc(C34CC5CC(CC(C5)C3)C4)o2)cn1 | -7.73% |
| Cc1ccc(NS(=O)(=O)c2ccc(OCC(=O)N3CCN(C)CC3)cc2)cc1 | 4.6% |
| CC(CCc1ccccc1)NC(=O)/C=C/c1ccc(Cl)cc1 (centres unmarked) | -17.8% |
| CC(C)(C)CN1CCC(n2nccc2NC(=O)c2ccccc2Cl)CC1 | -20.3% |
| CCOC(=O)C1(CC2CC2)CCN(Cc2ccc(OC)cc2F)CC1 | -73.5% |
